Reference: PubChem BioAssay AID504832 (National Center for Advancing Translational Sciences (NCATS), 2011)
Screen size: about 310,000 compounds; about 18,000 (5.8%) were called active. The inconclusive results got no clear call from the source; some entries with a clear call stand among them for comparison. Calls come from the whole dose curve; as a rule, active = well fitted inhibition curve with a large enough effect; inconclusive = small, poorly fitted or top-dose-only effect, or another doubt; inactive = no such curve, though single readings can be large or run the other way. Potencies of inconclusive entries are left out as doubtful fits.

experiment: Primary qHTS for delayed death inhibitors of the malarial parasite plastid, 48 hour incubation; conditions: P. falciparum luciferase growth in erythrocytes; series mostly up to 28.7 µM
Summary of the method: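 A one-generation exposure of luciferase-tagged malaria parasites in RPMI 1640/Albumax erythrocyte culture, 37 C and 5% CO2. Inhibition is inferred from decreased luminescence after adding detection reagent.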
Potency is the fitted concentration of half-maximal effect; tags give direction and shape of the fitted curve.

Compound	Potency
CCOC(=O)c1c(NC(=O)c2cccnc2)sc(C)c1C	inactive
CC(Sc1n[nH]c(-c2cccs2)n1)C(=O)Nc1ccc(C(N)=O)cc1 (stereo not given)	inactive
O=C1c2cccc(OCC(=O)N3CCCc4ccccc43)c2CCN1Cc1ccc(F)cc1	inconclusive [inhibitor, partial curve]
CN(CC(=O)Nc1ccccc1-c1ccccc1)C1CCCCC1	inconclusive [inhibitor, single point]
O=C(CNc1cc(S(=O)(=O)N2CCOCC2)ccc1NCC1CCCO1)Nc1ccc(C(F)(F)F)cc1 (stereo not given)	inconclusive [inhibitor, partial curve, poor fit]
CCC(c1nnc(SCC(=O)Nc2cc(S(C)(=O)=O)ccc2Cl)n1Cc1ccccc1)N(C)C (stereo not given)	inconclusive [inhibitor, partial curve, poor fit]
COc1ccc(OCC(=O)Nc2cccc(-c3nc4ccccc4o3)c2)cc1	inactive
COc1ccc(CNC(=O)C(c2ccco2)N(C(=O)c2csnn2)c2cccc(C)c2C)cc1 (stereo not given)	inconclusive [inhibitor, partial curve]
Cn1cc(CN2CCCC(C(=O)c3cc(F)ccc3F)C2)c2ccccc21 (stereo not given)	inconclusive [inhibitor, single point]
COc1cc(NC(=O)CN(c2cc(C)cc(C)c2)S(=O)(=O)c2c(C)noc2C)cc(OC)c1	inconclusive [inhibitor, partial curve]
CC(=O)Nc1ccc(NC(=O)C2CCCN2C(=O)Nc2ccc(F)cc2)cc1 (stereo not given)	inactive
CC(c1ccncn1)N(C)Cc1nc(-c2ccc(C(F)(F)F)cc2)no1 (stereo not given)	inactive
COCCCNC(=S)NC1CC2CCCC(C1)N2Cc1ccco1 (stereo not given)	inactive
CCN(CC)C(=O)C(C)N(C#N)c1nc(NC(C)C)nc(NC(C)C)n1 (stereo not given)	inconclusive [inhibitor, single point]
Cc1ccc(CNC(=O)C(=O)NCC2CCCN2S(=O)(=O)c2cc(C)ccc2C)cc1 (stereo not given)	inconclusive [inhibitor, partial curve, poor fit]
CCc1ccc(N2C(=O)C3CCCN3C2=S)cc1 (stereo not given)	inconclusive [inhibitor, single point]
Nc1ccc(N(c2ccccc2)c2ccc(N)cc2)cc1	inconclusive [inhibitor, full curve, poor fit]
O=C(COC(=O)Cc1ccccc1F)Nc1cccc(F)c1	inconclusive [inhibitor, single point]
CCN(CC)c1c2c(c(C#N)c3nc4ccccc4n13)CCC2	inconclusive [inhibitor, partial curve]
COc1cc(/C=C2/C(=O)N(C)C(=S)N2C)ccc1OCc1cccc(F)c1	inactive
COc1cccc(NC(=O)Nc2ccc(C(C)(C)C)cc2)c1	inconclusive [inhibitor, single point]
CCCCn1c(=NC(=O)c2ccco2)c(C(=O)OCC)cc2c(=O)n3ccccc3nc21	inconclusive [inhibitor, partial curve, poor fit]
Cc1ccc(C(C)(C)C)cc1S(=O)(=O)N1CCC(C(=O)N2CCN(c3ccc(O)cc3)CC2)CC1	active: 3.7 µM
Cc1cccc(CN2CCC(C(=O)Nc3cccc(-c4cscn4)c3)CC2)n1	inconclusive [inhibitor, single point]

Compound	Potency
COc1cc(CNCCc2c[nH]c3ccccc23)ccc1OCc1ccc(F)cc1	inconclusive [inhibitor, single point]
CCCCCCCCCCCCCCCC(=O)OC[C@H](COP(=O)([O-])OCC[N+](C)(C)C)OC(=O)CCCCCCCCCCCCCCC	inactive
COc1cccc(OC)c1C(=O)Nc1ccc(CN2CCOCC2)cc1	inactive
CCOC(=O)c1cnc2ccc(C)cc2c1NCCO	active: 13.1 µM
Cc1ccc(S(=O)(=O)N2CCN(c3ncnc4ccccc34)CC2)cc1	inconclusive [inhibitor, single point]
CCN1CCN(C(=S)Nc2cc(C(=O)OC)ccc2C(=O)OC)CC1	inactive
Cc1cc2oc(=O)cc(CN(C)Cc3ccccc3Cl)c2cc1C	inconclusive [inhibitor, single point]
O=C(Nc1cccc(S(=O)(=O)NC2=NCCCCC2)c1)C1COc2ccccc2O1 (stereo not given)	inconclusive [inhibitor, single point]
O=C(COc1cccc2ccccc12)N/N=C/c1ccc(Sc2nc3ccccc3s2)o1	inconclusive [inhibitor, single point]
Cc1ccc(CNc2ccc(N3CCOCC3)c(Cl)c2)cc1	inactive
CC(=O)NC(CC(=O)NNC(=O)c1cccs1)c1ccccc1 (stereo not given)	inactive
COc1cc(OC)cc(-c2c(-c3ccc(F)cc3)c3cc(-c4cnc(OC)nc4)ccc3n2C)c1	active: 4.15 µM
Cc1ccccc1NC(=S)N1CCCC1	inactive
COc1ccccc1/C=C/C=C(\C#N)C(=O)NC(C)c1ccccc1 (stereo not given)	inconclusive [inhibitor, partial curve]
O=C(N/C(=C/c1cccc([N+](=O)[O-])c1)C(=O)N1CCCCCC1)c1cccs1	inactive
CSc1ccc(CNCCCN(C)C)cc1	inconclusive [inhibitor, single point]
COc1ccc(OCCN2CCN(S(=O)(=O)c3ccccc3C(F)(F)F)CC2)cc1	inconclusive [inhibitor, single point]
CN(Cc1cccs1)C(=O)c1cc(S(=O)(=O)N2CCOCC2)ccc1F	inactive
CCOc1ccc(S(N)(=O)=O)cc1-c1nc2c(C(C)(C)C)nn(C)c2c(=O)[nH]1	inconclusive [inhibitor, partial curve, poor fit]
O=C(CSc1nnnn1-c1ccc(F)cc1)NCc1cccs1	inactive
CSCC[C@H](NC(=O)[C@H]1N2C(=O)c3ccccc3C2SC1(C)C)C(=O)NCc1ccncc1 (stereo not given in full)	inconclusive [inhibitor, partial curve, poor fit]
O=C(Nc1ccccc1)c1cnc2n(c1=O)CCS2	inactive
Cc1ccc(Cn2nnnc2CN2CCC(n3nnc4cc(C(F)(F)F)ccc43)CC2)cc1	inconclusive [inhibitor, partial curve]
BrC(/C=N/N1CCN(Cc2ccccc2)CC1)=C/c1ccccc1	inactive

Compound	Potency
COC(=O)Cc1n[nH]c(=O)c2ccccc12	inactive
CC1=NN(c2nc(-c3ccc(C)cc3)cs2)C(=O)C1N=Nc1cccc(O)c1 (stereo not given)	inactive
Cc1cccc(-n2c(O)c(C=Nc3ccccc3O)c3ccccc3c2=O)n1	inconclusive [inhibitor, single point]
Cc1cccc(/C=C2/Sc3ccc(C(=O)N4CCOCC4)cc3NC2=O)c1	inconclusive [inhibitor, partial curve]
Cc1ccc(C(=O)NCCCN2CCOCC2)cc1Cl	inconclusive [inhibitor, partial curve, poor fit]
Cc1ccc(C(C(=O)NC(C)(C)C)N(C(=O)c2csnn2)C2CC2)cc1 (stereo not given)	inconclusive [inhibitor, partial curve, poor fit]
O=C(CN1C(=O)COc2ccccc21)N1CCCC1	inconclusive [inhibitor, partial curve, poor fit]
Cc1ccc(C(=O)N2CCC3(CC2)Oc2ccc(F)cc2C(=O)C32CC(c3cccnc3)=NO2)s1 (stereo not given)	active: 9.28 µM
COC(=O)CC1C(=O)NCCN1C(=S)NC(=O)C(c1ccccc1)c1ccccc1 (stereo not given)	inconclusive [inhibitor, partial curve, poor fit]
COc1ccc2c(c1)N(C(=O)CN1C(=O)C3CCCCC3C1=O)C(C)(C)C=C2C (stereo not given)	active: 11.7 µM
S=C(Nc1ccc(Br)cc1)NC1CCCCC1	inactive
O=C(NCCCn1ccnc1)c1cc(C(=O)C2CCCCC2)c[nH]1	inconclusive [inhibitor, single point]
CC(=O)c1ccc(NC(=O)C[n+]2ccc(N(C)C)cc2)cc1	inconclusive [inhibitor, partial curve, poor fit]
CN(Cc1ccccc1)S(=O)(=O)c1ccc(NC(=S)NC(=O)C2CCCC2)cc1	inconclusive [inhibitor, single point]
Cc1cccc(C)c1NC(=O)c1cccn(Cc2ccc3c(c2)OC(F)(F)O3)c1=O	inconclusive [inhibitor, single point]
COCCN(CCOC)C(=S)Nc1ccccc1Cl	inactive
Nc1cc(=O)[nH]c(SCC(=O)N2CCN(S(=O)(=O)c3ccc4ccccc4c3)CC2)n1	inactive
Cc1ccc(C)c(S(=O)(=O)N2CCN(C(=O)[C@@H]3CCCN3C(=O)c3cccs3)CC2)c1	inconclusive [inhibitor, single point]
CCCN1C(=O)/C(=C/c2ccc(OCC(=O)OCC)cc2)NC1=S	inconclusive [inhibitor, partial curve, poor fit]
CC(c1ccccc1)n1c(-c2cccs2)nc2c(c(=O)c3ccccc3n2C)c1=O (stereo not given)	active: 9.28 µM
FC(F)Oc1ccc(NC(=S)NC2CCSc3ccccc32)cc1 (stereo not given)	inactive
COc1ccc(-n2c(SCC(=O)Nc3cc(C)on3)nc3ccc(O)cc3c2=O)cc1OC	inconclusive [inhibitor, single point]
